# Results reported in the supplement of paper PMC8728848.
# This is one part of the list.
# B1: AAL (Agrocybe aegerita), Q6WY08 (protein)
# chain: MQGVNIYNISAGTSVDLAAPVTTGDIVTFFSSALNLNAGAGNPNNTTLNLFAENGAYLLHIAHRLQENVIIFNSRQPDGPWLVEQRVSDVANQFAGIDGKAMVTVFDHGDKYQVVINEKTVIQYTKQISGLTLSLSYNATEETSIFSTVVEAVTYTGLALEHHHHHH
# Tests used:
# Test in all cases: glycan array binding signal (z-score within array); higher = stronger binding
# Settings in all cases: glycan notation: IUPAC condensed, linker removed; mutation: F63H
# [1] = molecular target: Fuc(a1-2)Gal(b1-4)GlcNAc(b1-3)Gal(b1-4)GlcNAc(b1-2)Man(a1-3)[Fuc(a1-2)Gal(b1-4)GlcNAc(b1-3)Gal(b1-4)GlcNAc(b1-2)Man(a1-6)]Man(b1-4)GlcNAc(b1-4)GlcNAc
# How it was run: (§1)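 Glycan array data came from 3228 arrays in the Consortium for Functional Glycomics database, and only arrays with an available protein sequence were kept. Glycan names were put into IUPAC-condensed notation, and columns mapping to the same glycan were averaged. The binding signal is a within-array Z-score, averaged across arrays of one protein sequence run at different concentrations or buffers and across linkers. A negative Z-score can be read as non-binding.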
# [2] = molecular target: Fuc(a1-2)Gal(b1-4)GlcNAc(b1-3)Gal(b1-4)GlcNAc(b1-3)Gal(b1-4)GlcNAc
# How it was run: as §1
# [3] = molecular target: Fuc(a1-2)Gal(b1-4)GlcNAc(b1-3)GalNAc
# How it was run: as §1
# [4] = molecular target: Fuc(a1-2)Gal(b1-4)GlcNAc(b1-3)[Fuc(a1-2)Gal(b1-4)GlcNAc(b1-6)]GalNAc
# How it was run: as §1
# [5] = molecular target: Fuc(a1-2)Gal(b1-4)GlcNAc(b1-3)[Fuc(a1-3)[Gal(b1-4)]GlcNAc(b1-6)]Gal(b1-4)Glc
# How it was run: as §1
# [6] = molecular target: Fuc(a1-2)Gal(b1-4)GlcNAc(b1-6)GalNAc
# How it was run: as §1
# [7] = molecular target: Fuc(a1-2)Gal(b1-4)GlcNAc6S
# How it was run: as §1
# [8] = molecular target: Fuc(a1-2)Gal(b1-4)[Fuc(a1-3)]GlcNAc
# How it was run: as §1
# [9] = molecular target: Fuc(a1-2)Gal(b1-4)[Fuc(a1-3)]GlcNAc(b1-2)Man(a1-3)[Fuc(a1-2)Gal(b1-4)[Fuc(a1-3)]GlcNAc(b1-2)Man(a1-6)]Man(b1-4)GlcNAc(b1-4)[Fuc(a1-6)]GlcNAc
# How it was run: as §1
# [10] = molecular target: Fuc(a1-2)Gal(b1-4)[Fuc(a1-3)]GlcNAc(b1-2)[Fuc(a1-2)Gal(b1-4)[Fuc(a1-3)]GlcNAc(b1-4)]Man(a1-3)[Fuc(a1-2)Gal(b1-4)[Fuc(a1-3)]GlcNAc(b1-2)Man(a1-6)]Man(b1-4)GlcNAc(b1-4)GlcNAc
# How it was run: as §1
# [11] = molecular target: Fuc(a1-2)Gal(b1-4)[Fuc(a1-3)]GlcNAc(b1-3)Gal(b1-4)[Fuc(a1-3)]GlcNAc
# How it was run: as §1
# [12] = molecular target: Fuc(a1-2)Gal(b1-4)[Fuc(a1-3)]GlcNAc(b1-3)Gal(b1-4)[Fuc(a1-3)]GlcNAc(b1-3)Gal(b1-4)[Fuc(a1-3)]GlcNAc
# How it was run: as §1
# [13] = molecular target: Fuc(a1-2)Gal(b1-4)[Fuc(a1-3)]GlcNAc(b1-3)GalNAc
# How it was run: as §1
# [14] = molecular target: Fuc(a1-2)Gal(b1-4)[Fuc(a1-3)]GlcNAc(b1-3)[Neu5Ac(a2-6)Gal(b1-4)GlcNAc(b1-6)]Gal(b1-4)Glc
# How it was run: as §1
# [15] = molecular target: Fuc(a1-2)Gal3S(b1-4)GlcNAc
# How it was run: as §1
# [16] = molecular target: Fuc(a1-2)Gal6S(b1-3)GlcNAc
# How it was run: as §1
# [17] = molecular target: Fuc(a1-2)Gal6S(b1-3)GlcNAc6S
# How it was run: as §1
# [18] = molecular target: Fuc(a1-2)Gal6S(b1-4)Glc
# How it was run: as §1
# [19] = molecular target: Fuc(a1-2)Gal6S(b1-4)Glc6S
# How it was run: as §1
# [20] = molecular target: Fuc(a1-2)[Gal(a1-3)]Gal
# How it was run: as §1
# [21] = molecular target: Fuc(a1-2)[Gal(a1-3)]Gal(b1-3)GalNAc
# How it was run: as §1
# [22] = molecular target: Fuc(a1-2)[Gal(a1-3)]Gal(b1-3)GalNAc(b1-3)Gal(a1-4)Gal(b1-4)Glc
# How it was run: as §1
# [23] = molecular target: Fuc(a1-2)[Gal(a1-3)]Gal(b1-3)GlcNAc
# How it was run: as §1
# [24] = molecular target: Fuc(a1-2)[Gal(a1-3)]Gal(b1-3)GlcNAc(b1-2)Man(a1-3)[Fuc(a1-2)[Gal(a1-3)]Gal(b1-3)GlcNAc(b1-2)Man(a1-6)]Man(b1-4)GlcNAc(b1-4)GlcNAc
# How it was run: as §1
# [25] = molecular target: Fuc(a1-2)[Gal(a1-3)]Gal(b1-3)GlcNAc(b1-2)Man(a1-3)[Fuc(a1-2)[Gal(a1-3)]Gal(b1-3)GlcNAc(b1-2)Man(a1-6)]Man(b1-4)GlcNAc(b1-4)[Fuc(a1-6)]GlcNAc
# How it was run: as §1
# [26] = molecular target: Fuc(a1-2)[Gal(a1-3)]Gal(b1-3)GlcNAc(b1-3)GalNAc
# How it was run: as §1
# [27] = molecular target: Fuc(a1-2)[Gal(a1-3)]Gal(b1-3)GlcNAc(b1-6)GalNAc
# How it was run: as §1
# [28] = molecular target: Fuc(a1-2)[Gal(a1-3)]Gal(b1-4)Glc
# How it was run: as §1
# [29] = molecular target: Fuc(a1-2)[Gal(a1-3)]Gal(b1-4)GlcNAc
# How it was run: as §1
# [30] = molecular target: Fuc(a1-2)[Gal(a1-3)]Gal(b1-4)GlcNAc(b1-2)Man
# How it was run: as §1
binder,measurement,setting,value
B1,glycan array binding signal (z-score),[1],0.258
same,glycan array binding signal (z-score),[2],-0.151
same,glycan array binding signal (z-score),[3],0.093
same,glycan array binding signal (z-score),[4],-0.28
same,glycan array binding signal (z-score),[5],-0.347
same,glycan array binding signal (z-score),[6],0.148
same,glycan array binding signal (z-score),[7],-0.578
same,glycan array binding signal (z-score),[8],0.043
same,glycan array binding signal (z-score),[9],-0.037
same,glycan array binding signal (z-score),[10],0.013
same,glycan array binding signal (z-score),[11],-0.162
same,glycan array binding signal (z-score),[12],-0.232
same,glycan array binding signal (z-score),[13],-0.447
same,glycan array binding signal (z-score),[14],-0.35
same,glycan array binding signal (z-score),[15],-0.545
same,glycan array binding signal (z-score),[16],-0.436
same,glycan array binding signal (z-score),[17],-0.047
same,glycan array binding signal (z-score),[18],0.107
same,glycan array binding signal (z-score),[19],-0.261
same,glycan array binding signal (z-score),[20],-0.165
same,glycan array binding signal (z-score),[21],0.343
same,glycan array binding signal (z-score),[22],-0.281
same,glycan array binding signal (z-score),[23],-0.214
same,glycan array binding signal (z-score),[24],-0.387
same,glycan array binding signal (z-score),[25],0.22
same,glycan array binding signal (z-score),[26],0.009
same,glycan array binding signal (z-score),[27],-0.089
same,glycan array binding signal (z-score),[28],-0.268
same,glycan array binding signal (z-score),[29],-0.031
same,glycan array binding signal (z-score),[30],-0.153
